# Data taken from PubChem BioAssay AID1347120 (National Center for Advancing Translational Sciences (NCATS), 2019).
# Screen size: about 390,000 compounds; about 930 (0.24%) were called active. This list was built around the results that the source calls inconclusive (neither active nor inactive); the mix of calls is not that of the screen. Calls follow the shape of the dose curve; as a rule, active = well fitted activation curve with a large enough effect; inconclusive = small, poorly fitted or top-dose-only effect; inactive = no such curve, though single readings can be large or run the other way. Potencies beside an inconclusive call are fits to weak or partial responses and may not hold up.
# Experiment: qHTS for Suppressors of FUS Proteinopathy: Primary screen using FUS-linked yeast assay; also: nearly all actives have a fitted effect of over 55% in size
# Details: S. cerevisiae FUS-expressing, OD600, 24 h; Potency: growth rescue; series mostly up to 76.6 µM
# In short: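 Galactose (2%) drives FUS expression in yeast precultured in raffinose; seeding density OD 0.005. Test compounds incubated 24hr at 30C and 99% humidity before absorbance at 600 nm was measured.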
# Potency is read from the fitted curve at half-maximal effect; tags tell the direction and shape of the fitted curve.
row,Structure (SMILES),Potency
1,COc1ccc(/C=C2\SC(=O)NC2=S)cc1OC,inactive
2,CCN(CC)C(=O)Cn1c(SCC(=O)Nc2ccc(F)cc2)nc2ccccc21,inactive
3,COc1ccc(S(=O)(=O)N(C)C[C@H]2Oc3ccc(NC(=O)C4CC4)cc3C(=O)N([C@H](C)CO)C[C@@H]2C)cc1,"inconclusive: 17.8 µM [activator, partial curve]"
4,COC(=O)[C@H]1C[C@@]2(n3ccc4ccccc43)c3ccccc3N(S(=O)(=O)c3ccccc3)[C@H]2N1,"inconclusive: 22.4 µM [activator, single point]"
5,Cc1ccc(-n2c(SCC(=O)N3CCCCC3)nc(O)cc2=O)cc1,"inconclusive: 28.2 µM [activator, single point]"
6,COc1ccc(Cl)cc1NC(=O)CN(C)C(=O)c1cc2c(F)cccc2s1,"inconclusive: 44.7 µM [activator, single point]"
7,COc1ccc(N2CSC3=C(C#N)C(c4ccc(OC)c(OC)c4)CC(=O)N3C2)c(OC)c1 (configuration not stated),"inconclusive: 31.6 µM [activator, partial curve, poor fit]"
8,CCC(C(=O)NCCc1ccc(OC)c(OC)c1OC)n1nc(C)c2sc3ccccc3c2c1=O (configuration not stated),"inconclusive: 35.5 µM [activator, single point]"
9,Cc1ccc(CNC(=O)C2CCN(C(=O)N3CC(C)Oc4ccc(Cl)cc43)CC2)cc1 (configuration not stated),inactive
10,CCOc1ccccc1NC(=O)c1ccc(-n2cncn2)nc1,"inconclusive: 44.7 µM [activator, single point]"
11,CC1(OC(=O)CCc2ccccc2)C(=O)C=C2C=C3CCCN3C=C2C1=O (configuration not stated),"inconclusive: 25.1 µM [activator, partial curve]"
12,Cc1ccc(-n2c(=O)c3c(cnn3C)n(CC(=O)Nc3cccc(Cl)c3)c2=O)cc1,"inconclusive: 28.2 µM [activator, partial curve, poor fit]"
13,CC(C)c1ccc(CNc2ccc([N+](=O)[O-])cn2)cc1,"inconclusive: 50.1 µM [activator, single point]"
14,Cc1nn(-c2ccccc2)c(Cl)c1C(=O)OC(C)C(=O)NC(=O)NC1CCCCC1 (configuration not stated),"inconclusive: 56.2 µM [activator, partial curve, poor fit]"
15,Cc1c(Cl)cccc1NC(=O)CCCCCN1C(=O)CCC1=O,"inconclusive: 2 µM [activator, full curve, poor fit]"
16,CCOC(=O)C1=NOC(C(=O)NC2CCCC2)(C(=O)C2CC2)C1 (configuration not stated),inactive
17,O=C(c1cnccn1)N1CCc2c([nH]c3ccccc23)C1c1cccc(Cl)c1 (configuration not stated),"inconclusive: 35.5 µM [activator, single point]"
18,CN(C)/C=C/C(=O)c1ccccc1OCc1cnc(Cl)s1,"inconclusive: 7.94 µM [activator, full curve]"
19,CCN(CC)CCOC(=O)c1ccc(N/C=C(/C#N)c2nc(-c3cc4ccccc4oc3=O)cs2)cc1,"inconclusive: 28.2 µM [activator, partial curve, poor fit]"
20,Cc1ccn2c(Nc3ccccc3)c(-c3c[nH]c4ccccc34)nc2c1,"inconclusive: 35.5 µM [activator, partial curve, poor fit]"
21,COC(=O)Cc1ccc(NC(=S)Nc2ccccn2)cc1,inactive

row,Structure (SMILES),Potency
1,COc1ccc(Cn2ccc(=O)c(Cc3c(Cl)cccc3Cl)c2C)cc1,"inconclusive: 11.2 µM [activator, partial curve]"
2,COc1cccc(=O)c2c(C)n(CC(=O)c3ccccc3)c(C)c12,"inconclusive: 22.4 µM [activator, partial curve, poor fit]"
3,Cc1ccc(N2CCN(c3nc4ccc(C(=O)c5ccccc5)cc4n4cnnc34)CC2)c(C)c1,inactive
4,Cc1cccc(N2C(=O)C(O)=C(C(=O)c3cccs3)C2c2ccc(Cl)cc2)n1 (configuration not stated),"inconclusive: 31.6 µM [activator, partial curve, poor fit]"
5,Cc1cccn2c(=O)c(/C=C(\C#N)S(=O)(=O)c3ccccc3)c(N3CCC(C(N)=O)CC3)nc12,"inconclusive: 35.5 µM [activator, single point]"
6,Cc1nc(-c2ccc(Cl)cc2)sc1C1(C)CC(c2cccnc2)=NO1 (configuration not stated),"inconclusive: 44.7 µM [activator, partial curve, poor fit]"
7,CCOC(=O)c1cnc2ccc(C(=O)OC)cc2c1Nc1ccc(OCc2ccccc2Cl)cc1,inactive
8,CC(=O)Nc1cccc(-c2nnc(SCC(=O)c3cc([N+](=O)[O-])ccc3Cl)o2)c1,active: 12.6 µM
9,CCOC1=C2CN(S(=O)(=O)c3ccc(C)cc3)[C@@H](c3ccccc3)C[C@H]2[C@H]2C(=O)N(c3ccccc3)C(=O)[C@H]2C1,"inconclusive: 8.91 µM [activator, partial curve]"
10,CCOc1ccc(NC(=O)CC2C(=O)N(c3ccc(OC)cc3)C(=O)N2CCC2=CCCCC2)cc1 (configuration not stated),inactive
11,COc1ccc(S(=O)(=O)Nc2cccc(-c3ccc(N4CCCC4)nn3)c2)cc1F,inactive
12,CC1=C(C(N)=O)C(c2ccc(C)cc2)n2nc(SCc3ccccc3)nc2N1 (configuration not stated),inactive
13,Cc1cccc(NC(=S)N/N=C/C(C)c2ccccc2)c1C (configuration not stated),"inconclusive: 35.5 µM [activator, single point]"
14,CCn1c2ccccc2c2cc(NC(=O)COC(=O)c3cc(Cl)c(N)cc3OC)ccc21,"inconclusive: 20 µM [activator, single point]"
15,CC(=O)c1ccc(-c2nnc(CCC(=O)N(C)Cc3c(C)nc4ccccn34)o2)s1,"inconclusive: 35.5 µM [activator, single point]"
16,CCN(CC)c1ccc(NC(=O)CSc2nc3ccccc3c(=O)n2-c2cc(S(=O)(=O)N(C)C)ccc2C)cc1,active: 35.5 µM
17,Cc1cccc(COC[C@H](Cc2ccccc2)N2CCN(C(=O)c3ccc(Cl)c(Cl)c3)CCC2=O)c1,"inconclusive: 12.6 µM [activator, partial curve]"
18,COc1ccc(NC(=O)CC2C(=O)NCCN2C(=O)c2ccc(N(C)C)cc2)cc1 (configuration not stated),inactive
19,Cc1ccc(NC(=S)Nc2cccc(S(=O)(=O)Nc3c(C)n(C)n(-c4ccccc4)c3=O)c2)cc1,"inconclusive: 28.2 µM [activator, single point]"
20,O=C(CCl)N1c2ccccc2Oc2ccc3ccccc3c21,"inconclusive: 50.1 µM [activator, single point]"
21,CCn1c2ccccc2c2cc(C=Nn3c(-c4ccccc4C)n[nH]c3=S)ccc21,"inconclusive: 25.1 µM [activator, single point]"

row,Structure (SMILES),Potency
1,O=C(COC(=O)c1cc(S(=O)(=O)N2CCCCC2)ccc1Cl)NC1CCS(=O)(=O)C1 (configuration not stated),inactive
2,COc1ccc(C)cc1S(=O)(=O)N(CC(=O)Nc1ccc2c(c1)OCCO2)Cc1ccccc1,"inconclusive: 15.8 µM [activator, partial curve, poor fit]"
3,O=C(c1nc(-c2ccc(Cl)cc2)n2c1CCCCC2)N1CCN(c2ccc(F)cc2)CC1,"inconclusive: 22.4 µM [activator, single point]"
4,COc1ccc([C@H]2CN(CCc3ccccc3)C(=O)[C@@H]2CC(=O)Nc2ccccc2)cc1,"inconclusive: 50.1 µM [activator, single point]"
5,C/C(=N\NC(=O)c1cccc(S(=O)(=O)N2CCCC2)c1)c1ccc(OCC(=O)N(C)C)cc1,"inconclusive: 50.1 µM [activator, single point]"
6,CCOc1ccc(N2C(=O)c3cccnc3C2Nc2ccc(C)c(C)c2)cc1 (configuration not stated),"inconclusive: 28.2 µM [activator, single point]"
7,O=C1C2CC=C(Cl)CC2C(=O)N1CN(Cc1ccco1)CN1C(=O)C2CC=C(Cl)CC2C1=O (configuration not stated),"inconclusive: 35.5 µM [activator, single point]"
8,Cc1ccc(Nc2ncc(C(=O)NCCCN3CCN(C)CC3)c3ccccc23)cc1Cl,inactive
9,CCn1nc(C(=O)OCC(=O)Nc2nc(-c3ccc(OC)cc3)cs2)c2ccccc2c1=O,"inconclusive: 15.8 µM [activator, partial curve, poor fit]"
10,Cc1ccc(-n2ncc(C(=O)NCc3cccs3)c2C2CCN(C(=O)OC(C)(C)C)CC2)cc1C,active: 20 µM
11,CN(/N=C\c1ccc(O)c(O)c1)c1nc(-c2ccccc2)cc(-c2ccccc2)n1,"inconclusive: 12.6 µM [activator, partial curve, poor fit]"
12,Cc1ccc2[nH]c(CSc3nnc(NC(=O)COc4ccccc4F)s3)cc(=O)c2c1,inactive
13,CCOc1ccc(-c2nonc2NC(=O)c2ccccc2C)cc1,inactive
14,CCOC(=O)c1c(C)oc2c1c(C=NCCO)c(O)c1ccccc12,"inconclusive: 39.8 µM [activator, single point]"
15,COc1cc(NC(=O)c2cnn3c(C)cc(C)nc23)cc(OC)c1OC,inactive
16,CN1CCN(C(CNC(=O)C(=O)Nc2ccc3c(c2)OCCO3)c2ccc(F)cc2)CC1 (configuration not stated),"inconclusive: 3.98 µM [activator, full curve]"
17,COC(=O)c1cccc(S(=O)(=O)N(Cc2ccco2)Cc2cc3ccc(OC)cc3[nH]c2=O)c1,inactive
18,CCN(CC)C(=O)c1sc2c(c1C)c(=O)n(-c1ccc(C)c(C)c1)c(=O)n2CC(=O)Nc1ccc(F)cc1,"inconclusive: 39.8 µM [activator, single point]"
19,Cc1cccc(-n2c(N)cc(=O)nc2SCC(=O)Nc2ccccc2)c1,"inconclusive: 25.1 µM [activator, partial curve, poor fit]"
20,c1ccc(CC2CCN(c3nc4ccccc4n4nnnc34)CC2)cc1,inactive
